# From publication PMC5244385, “Clumping factor A of Staphylococcus aureus interacts with AnnexinA2 on mammary epithelial cells” (Scientific Reports, 2017)
# T1: ClfA35-559 from pETM-10 (for ELISA) (S. aureus, UniProt Q53653 35-559)
# T1 construct: Clumping factor A of S. aureus, 1576 bp amplified from genomic DNA (GenBank Z18852.1)
# T1 sequence: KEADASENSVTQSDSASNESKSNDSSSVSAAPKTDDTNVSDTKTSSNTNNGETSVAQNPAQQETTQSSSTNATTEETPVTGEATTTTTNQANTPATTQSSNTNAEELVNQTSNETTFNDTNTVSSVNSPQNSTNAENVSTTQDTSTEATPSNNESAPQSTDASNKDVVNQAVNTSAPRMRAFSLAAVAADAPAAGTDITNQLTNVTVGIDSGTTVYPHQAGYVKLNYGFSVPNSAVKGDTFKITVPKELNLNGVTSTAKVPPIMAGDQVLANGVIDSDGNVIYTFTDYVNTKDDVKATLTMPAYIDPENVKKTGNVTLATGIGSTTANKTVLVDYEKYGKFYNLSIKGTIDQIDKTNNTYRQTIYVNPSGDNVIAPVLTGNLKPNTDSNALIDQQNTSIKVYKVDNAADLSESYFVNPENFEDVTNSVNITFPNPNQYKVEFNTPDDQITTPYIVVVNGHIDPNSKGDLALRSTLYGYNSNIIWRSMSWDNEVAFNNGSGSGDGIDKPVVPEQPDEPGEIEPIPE
# B1: AnnexinA2 from pETM-10 (for ELISA) (natural protein)
# chain: not shown
# notes: the forward primer begins at the codon of Ser2 (tct acc gtt cat gaa att), the reverse primer runs to the stop codon
# Target: T1, ClfA35-559 from pETM-10 (for ELISA)
# Assay: ELISA; plates coated with 1 μg/well ClfA in PBS overnight at 4 °C, blocked with 2% BSA in PBS-T; AnnexinA2 or BSA (0–2000 nM) 1 h at RT; detected with anti-AnnexinA2 antibody and HRP secondary; triplicate
# Details: both partners purified
binder,measurement,value
B1,Kd,418 nM
